Source: EPA's CvTdb concentration-time database
Further values from the same series stand in other lists.

Assays:
Assay in all cases: concentration in plasma after dosing
Rat [1] = settings: dosed: Bromochloroacetic acid, 100 mg/kg, oral, Male, F344
Rat [2] = settings: 20 min; dosed: Bromochloroacetic acid; 10 mg/kg; iv; Male; F344
Rat [3] = settings: dosed: Bromochloroacetic acid

O=C(O)C(Cl)Br (stereo not drawn) [Bromochloroacetic acid]
Rat [1]
Settings	concentration in plasma [ng/mL]
0.25 h	14200
6 h	2800

Settings	concentration in plasma [ng/mL]
Rat [2]	1590

concentration in plasma [ng/mL], Rat [3]
Settings	Female	Male
0.25 h, 40 mg/kg, oral, F344	7070	8230
0.25 h, 100 mg/kg, oral, F344	29400	6570
0.75 h, 100 mg/kg, oral, F344	47200	34200
1 h, 80 mg/kg, iv, F344	–	23500
1 h, 80 mg/kg, iv, Harlan Sprague-Dawley	17100	–
1.5 h, 40 mg/kg, oral, Harlan Sprague Dawley	5940	–
1.5 h, 100 mg/kg, oral, F344	26000	28500
2 h, 40 mg/kg, oral, F344	–	3270
2 h, 40 mg/kg, oral, Harlan Sprague Dawley	3150	–
2 h, 80 mg/kg, iv, F344	–	4440
2 h, 80 mg/kg, iv, Harlan Sprague-Dawley	2990	–
2 min, 10 mg/kg, iv, F344	–	19200
2 min, 100 mg/kg, oral, F344	3410	1970
3 h, 40 mg/kg, oral, F344	1580	1790
3 h, 80 mg/kg, iv, F344	–	554
3 h, 80 mg/kg, iv, Harlan Sprague-Dawley	562	–
3 h, 100 mg/kg, oral, F344	5700	11100
4 h, 40 mg/kg, oral, F344	1220	–
4.5 h, 100 mg/kg, oral, F344	7030	3780
5 min, 10 mg/kg, iv, F344	–	11800
5 min, 100 mg/kg, oral, F344	9340	5310
6 h, 40 mg/kg, oral, F344	239	–
6 h, 100 mg/kg, oral, F344	1020	301
7 h, 100 mg/kg, oral, F344	114	523
10 min, 10 mg/kg, iv, F344	–	4440
10 min, 40 mg/kg, oral, F344	–	6840
10 min, 40 mg/kg, oral, Harlan Sprague Dawley	5800	–
10 min, 100 mg/kg, oral, F344	9610	5100
20 min, 10 mg/kg, iv, F344	–	1170
20 min, 40 mg/kg, oral, F344	11000	–
20 min, 100 mg/kg, oral, F344	29900	11200
40 min, 10 mg/kg, iv, F344	–	201
